According to a compilation of properties of binary mixtures (doi:10.1021/je060497d):
The densities may have been worked out from excess volumes.

Experiment: xn = mol fraction of the nth substance listed
Conditions: 101 kPa

CCC(C)=O + CCCC[n+]1ccn(C)c1.F[P-](F)(F)(F)(F)F
Conditions	mass density [kg/m3]
303.15 K, x1 = 1	794.9

CCCC[n+]1ccn(C)c1.F[P-](F)(F)(F)(F)F + CCC(C)=O
mass density [kg/m3]
Conditions	293.15 K	298.15 K	303.15 K
x2 = 0	1371.6	1367.3	1363
x2 = 0.0509	1359.7	1355.5	–
x2 = 0.0987	1348.3	1344	1339.7
x2 = 0.1907	1323.9	1319.8	–
x2 = 0.2915	1293.9	1289.8	1285.5
x2 = 0.4057	1254.1	1250.1	1245.7
x2 = 0.5074	1211.6	1207.3	1203
x2 = 0.5956	–	–	1159
x2 = 0.7008	–	–	1095.3
x2 = 0.7919	1036.2	1031.3	1026.8
x2 = 0.8942	938.8	934	929.1
x2 = 0.9467	–	872.6	867.6

CCC(C)=O + COS(=O)(=O)[O-].Cn1cc[n+](C)c1
x1 = 1
Conditions	mass density [kg/m3]
293.15 K	805.6
303.15 K	794.9

CCCCCC[n+]1ccn(C)c1.F[P-](F)(F)(F)(F)F + CC(C)O
mass density [kg/m3]
Conditions	x1 = 0.0011	x1 = 0.0019	x1 = 0.0024	x2 = 0	x2 = 0.0067	x2 = 0.074	x2 = 0.189	x2 = 0.3042	x2 = 0.3877	x2 = 0.5107
293.15 K	787	–	–	–	1296.2	1283.9	1261.8	1236	–	–
298.15 K	782.8	784.2	785.4	1293.7	1292.2	1279.9	1257.7	1232	–	1168.7
303.15 K	778.5	780	781.1	1289.6	1288.3	–	1253.8	1227.9	1205.3	1164.6

COS(=O)(=O)[O-].Cn1cc[n+](C)c1 + CCC(C)=O
mass density [kg/m3]
Conditions	x1 = 0.0006	x1 = 0.0012	x1 = 0.0029	x2 = 0	x2 = 0.0257	x2 = 0.0716	x2 = 0.2017	x2 = 0.2926
293.15 K	806.5	–	809.5	1330.9	1323.5	1310.6	1273.8	1244
298.15 K	800.7	801.5	–	–	–	1307.1	1270.1	1240.3
303.15 K	–	796.7	799.1	1323.7	–	–	1266.4	1236.5

CCOC(C)=O + CCCCCCCC[n+]1ccn(C)c1.F[P-](F)(F)(F)(F)F
x1 = 1
Conditions	mass density [kg/m3]
298.15 K	894.4
303.15 K	888.2

CC(C)O + CCCC[n+]1ccn(C)c1.F[P-](F)(F)(F)(F)F
x1 = 1
Conditions	mass density [kg/m3]
293.15 K	785
303.15 K	776.6

COS(=O)(=O)[O-].Cn1cc[n+](C)c1 + CC(C)O
mass density [kg/m3]
Conditions	293.15 K	298.15 K	303.15 K
x2 = 0	1330.9	1327.2	–
x2 = 0.0498	1317.5	1314	1310.4
x2 = 0.0958	1304.8	1301.4	–
x2 = 0.2008	–	1270.7	1267.4
x2 = 0.3063	1239.9	1236.3	1232.7
x2 = 0.4013	1204	1200.3	1196.7
x2 = 0.4957	1162.4	1159	1155
x2 = 0.5945	–	1108.5	1104.7
x2 = 0.7039	1045.8	1042	1038.3
x2 = 0.8013	975.7	971.8	967.9
x2 = 0.9019	–	884.8	880.8
x2 = 0.951	–	835.9	831.6

CCCC[n+]1ccn(C)c1.F[P-](F)(F)(F)(F)F + CCOC(C)=O
mass density [kg/m3]
Conditions	293.15 K	298.15 K	303.15 K
x2 = 0	1371.6	1367.3	1363
x2 = 0.0501	1361.5	1357.3	1352.9
x2 = 0.1003	1350.6	1346.3	–
x2 = 0.1854	1330.9	1326.6	1322.2
x2 = 0.3	–	1297	1292.6
x2 = 0.4064	1268.7	1264.7	1260.3
x2 = 0.5117	1230.7	–	–
x2 = 0.6032	1191.4	1186.8	1182
x2 = 0.7061	1138.2	–	–
x2 = 0.802	1077.6	1072.2	1067
x2 = 0.9021	–	993.4	987.7
x2 = 0.948	–	950.6	944.6

COS(=O)(=O)[O-].Cn1cc[n+](C)c1 + CCOC(C)=O
mass density [kg/m3]
Conditions	x2 = 0	x2 = 0.0509	x2 = 0.0706	x2 = 0.0928	x2 = 0.1254	x2 = 0.1451
293.15 K	1330.9	1317.7	–	1308.3	1301.1	1296.6
298.15 K	1327.2	1314.2	1309.8	1304.7	1297.5	1293
303.15 K	1323.7	1310.7	1306.2	1301	1293.8	–

CCCCCCCC[n+]1ccn(C)c1.F[P-](F)(F)(F)(F)F + CCOC(C)=O
mass density [kg/m3]
Conditions	293.15 K	298.15 K	303.15 K
x2 = 0	1239.6	1235.7	1231.9
x2 = 0.0048	–	1235.2	–
x2 = 0.0967	1228.7	1224.8	1220.9
x2 = 0.1981	1215.3	1211.3	1207.4
x2 = 0.2967	1200.1	1196.2	1192.2
x2 = 0.3954	1182.7	1178.5	1174.4
x2 = 0.5056	1158.3	1153.9	1149.6
x2 = 0.6061	–	1126.1	–
x2 = 0.7059	1095.5	1090.8	1086
x2 = 0.8004	–	1047.2	1042.2
x2 = 0.9036	987.8	982.3	976.8
x2 = 0.9453	954.3	–	942.9

CCCC[n+]1ccn(C)c1.F[P-](F)(F)(F)(F)F + CC(C)O
mass density [kg/m3]
Conditions	x1 = 0.0008	x1 = 0.0011	x2 = 0	x2 = 0.0458	x2 = 0.1055	x2 = 0.1825	x2 = 0.2864
293.15 K	786.3	–	1371.6	–	1347.6	1328.2	1298.5
298.15 K	782.3	782.9	1367.3	1357.2	1343.4	1324	1294.3
303.15 K	–	778.5	1363	1353	1339.3	1319.8	1290

CCOC(C)=O + CCCC[n+]1ccn(C)c1.F[P-](F)(F)(F)(F)F
Conditions	mass density [kg/m3]
293.15 K, x1 = 1	900.5

CC(C)O + COS(=O)(=O)[O-].Cn1cc[n+](C)c1
x1 = 1
Conditions	mass density [kg/m3]
293.15 K	785
303.15 K	776.6

CCOC(C)=O + COS(=O)(=O)[O-].Cn1cc[n+](C)c1
x1 = 1
Conditions	mass density [kg/m3]
293.15 K	900.5
303.15 K	888.2
